Data taken from publication PMC5892938.
Some of the results follow. The exact form of the protein is not confirmed.

These sequences were tested against GST-SBP-ILF3 (Homo sapiens) (UniProt Q12906) (assay: targeted RNA Bind-n-Seq). Conditions: RBNS binding buffer: 25 mM Tris pH 7.5, 150 mM KCl, 3 mM MgCl2, 0.1% Tween, 0.5 mg/mL BSA, 1 mM DTT; 27 nM protein, 750 pM RNA pool; temperature not stated; high values mean tight binding; sequences stand for … in GGGUAAAAGCGAGGUGAA…CGGGACAAGUAUUAUGGG.

Row | Sequence | binding signal (log2 fold change)
1 | GUGGUUGGUGUUGGAUUCUAACACCGACUA [gtspaired] | -0.372
2 | GGUGGUGGUGUUGGCCUCUAACACCGCUAC [gtspaired] | -0.72
3 | GUGUGUGGUGUUGGACCCUAACACCACAUA [gtspaired] | -0.495
4 | GUGUGUUGUGUUGGCCUCUAACACAACACG [gtspaired] | -0.467
5 | GUGUGGUGUGUUGGCAUCUAACACAUCGCA [gtspaired] | -0.713
6 | UUUUUUUUUUGAGAUGGUGACCAUCUUCUG [tttttgagapaired] | 0.343
7 | GUUGGUGGUGUUGGCGCCUAACACCAUCAA [gtspaired] | -0.176
8 | UUUUUUUUUUGAGAACGUAACGUUCUCCUA [tttttgagapaired] | 0.0581
9 | UUUUUUUUUUGAGACGGGAGCUGUCUUCUA [tttttgagapaired] | 0.653
10 | GUGUGUUGUGUUGGAUCCUAACACAGCACA [gtspaired] | -0.54
11 | GUGUGUGGUGUUGGAUCCUAACACCGCACG [gtspaired] | -0.484
12 | UUUUUUUUUUGAGAGCGGUGCGCUCUCCUG [tttttgagapaired] | 0.672
13 | UUUUUUUUUUGAGACUGUGGCAGUCUCCUA [tttttgagapaired] | 0.668
14 | GUGUGGUGUGUUGGCUCCUAACACACCGCG [gtspaired] | -0.703
15 | UUUUUUUUUUGAGAUGGCAACUAUCUCCGG [tttttgagapaired] | 0.344
16 | UUCCUCUCUCCUCCGUGGGAGGGGGGAGGA [ctspaired] | -0.239
17 | GUGUGUUGUGUUGGAGUCUAACACAACGCG [gtspaired] | -0.691
18 | GGUUGUGGUGUUGGAGUCUAACACCGCAGC [gtspaired] | -0.518
19 | UUUUUUUUUUGAGACCGAACCGGUCUCCGG [tttttgagapaired] | 0.44
20 | UUUUUUUUUUGAGACGGACGCCGUCUCCGG [tttttgagapaired] | 0.597
21 | UUUUUUUUUUGAGACGGAAUCUGUCUCCUA [tttttgagapaired] | 0.47
22 | UUUUUUUUUUGAGACUGAGUCAGUCUCCUG [tttttgagapaired] | 0.643
23 | UUUUUUUUUUGAGAGUGAUGCACUCUCCGG [tttttgagapaired] | 0.168
24 | UUUUUUUUUUGAGACCGGGACGGUUUCCAG [tttttgagapaired] | 0.598
25 | UUUUUUUUUUGAGACGGCUGCCGUCUUCUG [tttttgagapaired] | 0.898
26 | UUUUUUUUUUGAGACUGUAGCAGUCUCCGG [tttttgagapaired] | 0.625
27 | GUGUGUUGUGUUGGCUCCUAACACAGCACA [gtspaired] | -0.483
28 | UUUUUUUUUUGAGACGGAGCCCGUCUCCGG [tttttgagapaired] | 0.548
29 | GGUGUGUGUGUUGGACCCUAACACAUAUAC [gtspaired] | -0.333
